# Test results: article PMC4336329 (PLoS ONE, 2015)
# Out of some 310,000 compounds screened, about 14,000 (4.5%) showed an effect of 50% or more. The effect is printed as a negative number. This is one part of the list.
# Molecular target: human ether-à-go-go-related gene (hERG) potassium channel (human, UniProt Q12809)
# Experiment: primary screen, population patch clamp on CHO cells stably expressing hERG
# 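Further: peak tail current of the secondary pulse compared with the same well before compound.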
# Chain of human ether-à-go-go-related gene (hERG) potassium channel (Q12809 whole entry, looked up): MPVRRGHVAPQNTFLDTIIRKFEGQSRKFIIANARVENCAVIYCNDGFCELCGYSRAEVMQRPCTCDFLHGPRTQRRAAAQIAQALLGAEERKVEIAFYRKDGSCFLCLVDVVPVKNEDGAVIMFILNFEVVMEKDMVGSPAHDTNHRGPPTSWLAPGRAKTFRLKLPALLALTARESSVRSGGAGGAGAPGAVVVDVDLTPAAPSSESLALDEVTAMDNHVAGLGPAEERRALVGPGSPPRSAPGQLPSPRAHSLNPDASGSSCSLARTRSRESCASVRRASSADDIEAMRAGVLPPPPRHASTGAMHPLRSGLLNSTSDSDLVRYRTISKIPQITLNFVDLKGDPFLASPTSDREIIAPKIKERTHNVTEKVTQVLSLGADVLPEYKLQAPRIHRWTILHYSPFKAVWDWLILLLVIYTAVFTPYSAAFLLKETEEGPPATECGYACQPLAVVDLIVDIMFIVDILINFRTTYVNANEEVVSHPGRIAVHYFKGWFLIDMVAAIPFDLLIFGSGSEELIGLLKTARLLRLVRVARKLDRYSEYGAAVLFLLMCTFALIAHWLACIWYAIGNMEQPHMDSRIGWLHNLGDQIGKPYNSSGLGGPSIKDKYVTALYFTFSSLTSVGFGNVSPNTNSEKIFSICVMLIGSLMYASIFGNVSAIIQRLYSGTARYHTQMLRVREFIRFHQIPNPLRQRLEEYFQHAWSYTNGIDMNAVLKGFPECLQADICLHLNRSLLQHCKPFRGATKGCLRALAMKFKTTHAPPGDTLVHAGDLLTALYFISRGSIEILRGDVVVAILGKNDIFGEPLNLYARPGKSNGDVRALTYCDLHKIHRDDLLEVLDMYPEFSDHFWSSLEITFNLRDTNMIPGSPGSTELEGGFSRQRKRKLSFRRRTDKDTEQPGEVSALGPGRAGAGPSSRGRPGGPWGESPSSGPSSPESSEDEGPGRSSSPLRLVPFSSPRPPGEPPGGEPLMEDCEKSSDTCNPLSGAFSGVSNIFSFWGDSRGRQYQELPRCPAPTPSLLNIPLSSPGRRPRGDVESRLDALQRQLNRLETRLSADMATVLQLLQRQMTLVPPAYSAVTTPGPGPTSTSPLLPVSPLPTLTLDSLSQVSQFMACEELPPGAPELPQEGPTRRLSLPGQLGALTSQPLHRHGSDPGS
row,SMILES,"hERG current change (%, negative = inhibition) at 10uM"
1,O=C(CCCc1ccccc1)Nc1ccnn1C1CCN(Cc2ccc(CO)o2)CC1,-10.5%
2,Cc1cc(Br)ccc1NC(=O)CN(C)C(=O)COc1cccc2c1OC(C)(C)C2,-8.15%
3,O=C(NCc1ccco1)C1CCCN(S(=O)(=O)c2cnc[nH]2)C1 (centres unmarked),-0.543%
4,COc1ccc(C(=O)n2cnc3ccccc32)cc1,-0.37%
5,CCOC(=O)C1=C(C)N(CCCCCC(=O)O)C(=O)NC1c1ccc(Br)cc1 (centres unmarked),5.33%
6,O=C1NC(=S)S/C1=C\c1coc2ccc(O)cc2c1=O,14.4%
7,Cc1c(NC(=O)c2c(F)cccc2F)c(=O)n(-c2ccccc2)n1C,-2.98%
8,O=C(CNCC1(N2CCOCC2)CCCCC1)Nc1ccc(Cl)cc1,-78.8%
9,COc1ccc(S(=O)(=O)Nc2cc3c4c(oc3c3ccccc23)CCCC4=O)cc1,8.01%
10,Nc1ccc2nc(NC(=O)C3CCCCC3)sc2c1,-11.1%
11,CCCCc1ccc(NC(=O)CC(C)C)cc1,-6.78%
12,COc1ccc2[nH]c(=O)c(CN(C(=O)c3ccco3)C3CCCCC3)cc2c1,-17.9%
13,O=C(NCc1ccccn1)c1nc(-c2ccc(C(F)(F)F)cc2)no1,-10.2%
14,O=C(COC(=O)C12CC3CC(CC(C3)C1)C2)N1CCN(S(=O)(=O)c2ccccc2)CC1,9.27%
15,COc1cccc(/C=C/C(=O)OCC(=O)N2CCN(c3ccccc3)CC2)c1,-23.6%
16,CCOc1cc(C)c(C(C)C)cc1S(=O)(=O)n1ccc(C)n1,-29.4%
17,COc1ccc(C(=O)/C=C2/Sc3cc4c(cc3N2C)OCO4)cc1,9.89%
18,Cl.OC1(c2ccc3ccccc3c2)CCN(Cc2ccccc2)C1 (centres unmarked),-57.1%
19,Cc1cc2c(cc1C)CSC(c1ccccc1O)SC2,1.15%
20,Br.N=c1ccn(CC(=O)c2ccc(-c3ccccc3)cc2)cc1,-6.07%
21,COc1ccc(C(=O)N/N=C/c2ccc(OC)c(CSc3ccccn3)c2)cc1,-13.6%
22,Cc1cccc(NC(=O)c2oc3ccc(S(=O)(=O)N4CCOCC4)cc3c2C)c1C,-9.47%
23,COc1ccc(-c2cc(C(=O)Nc3cc(C)nn3-c3ccccc3)no2)cc1OC,16%

row,SMILES,"hERG current change (%, negative = inhibition) at 10uM"
1,O=C(NCc1ccc(F)cc1Cl)C1CCN(S(=O)(=O)N2CCCCC2)CC1,-6.95%
2,O=C(OCC(=O)N1CCN(C(=O)c2ccco2)CC1)c1cccc(F)c1,-16.8%
3,Fc1ccccc1/C=N/n1cc(-c2ccccc2)[nH]c1=S,8.21%
4,CC1=C(C(=O)OC(C)(C)C)C(c2ccc(Br)cc2)NC(=O)N1CCCC(=O)O (centres unmarked),0.0237%
5,COc1cc(NC(=O)COc2ccc(Cl)cc2)ccc1-c1cc2ccccc2oc1=O,15.5%
6,Cc1cc(NC(=O)CSc2nnc(NCc3ccccc3)s2)no1,23%
7,C=C(C)Cn1c(SCC(=O)O)nc2c1c(=O)[nH]c(=O)n2C,-6.43%
8,OC[C@H]1OC(O)[C@H](O)[C@@H](O)[C@H]1O (some centres unmarked),12.7%
9,N#C/C(=C\c1cccc(Cl)c1)c1n[nH]c(Cn2cncn2)n1,2.7%
10,CC/C(=C/c1sc2ccc(C)cc2[n+]1CCCS(=O)(=O)[O-])SC,9.77%
11,CCOCCOC(=O)c1[nH]c2c(c1C)C(=O)CC(c1cccs1)C2 (centres unmarked),-1.56%
12,CC(NC(=O)CCCN1C(=O)c2ccccc2C1=O)c1ccc2c(c1)CCCC2 (centres unmarked),-2.18%
13,COc1ccc(-n2c(SCC(=O)N/N=C(\C)c3cccnc3)nc3ccccc3c2=O)cc1,4.88%
14,Cc1ccc2nc(SCC(=O)O)nc(C)c2c1,-13.1%
15,O=C(Nc1ccccc1O)c1ccc(Cl)cc1,7.71%
16,O=C(CCCSc1nc2ccccc2c(=O)[nH]1)c1ccccc1,-6.94%
17,CCOCCCNC(=O)C(c1ccc(OC)cc1)N(Cc1cccs1)C(=O)c1ccccc1O (centres unmarked),-11.4%
18,CC(C)(C)C(=O)Nc1cc(C(F)(F)F)ccc1N1CCOCC1,1.53%
19,OCC[C@H]1C[C@@H](O)[C@H](O)[C@]2(Cc3ccccc3CO2)O1,10.1%
20,CCOc1cc(NC(=S)NCCc2ccccc2)c(OCC)cc1NC(C)=O,-7.27%
21,CC(C)Cn1c(CN(Cc2ccccc2)Cc2ccccc2)nc2c1c(=O)n(C)c(=O)n2C,-15.5%
22,CC(/C=N/NC(=S)Nc1cccc(S(=O)(=O)N(C)C)c1)c1ccccc1 (centres unmarked),4.46%
23,Cc1cc(C)c2nc(-c3ccccn3)cc(C(=O)NCc3ccc(S(N)(=O)=O)cc3)c2c1,-2.17%

row,SMILES,"hERG current change (%, negative = inhibition) at 10uM"
1,CN=C(Nc1cccnc1)c1ccccc1,15.6%
2,CCc1ccccc1-n1c(SCC(=O)Nc2ccc3c(c2)OCCO3)nc2[nH]ncc2c1=O,7.25%
3,COc1c(Br)cc2c(C)c(C(=O)N3CCOCC3)oc2c1Br,0.976%
4,CC(Sc1nc(N)cc(N)n1)C(=O)NCC1CCCO1 (centres unmarked),10.2%
5,CCC(c1nnc(SCC(=O)Nc2cccc(S(N)(=O)=O)c2)n1Cc1ccccc1)N(C)C (centres unmarked),8.5%
6,CCOC(=O)CC[NH3+].[Cl-],9.06%
7,O=C(O)CC/C(=N/Nc1ccc([N+](=O)[O-])cc1)C(=O)O,20.4%
8,COc1ccc(NC(=O)COC(=O)Cn2cnc3ccccc3c2=O)cc1OC,2.68%
9,COc1cc(C(C)=O)ccc1OCc1cc(C(=O)N2CCSCC2)no1,13.1%
10,c1cnc(Nc2nc(-c3ccc4ccccc4c3)cs2)nc1,15.5%
11,O=C(c1c(F)cccc1F)N1CCCC(c2nc(-c3ccc(F)cc3)no2)C1 (centres unmarked),-6.69%
12,CC1CN(CC(O)COC2CCC(C(C)(C)C)CC2)CC(C)O1.Cl (centres unmarked),5.86%
13,CC(=O)Nc1ccc(SCC(=O)Nc2oc(C)c3c(C)n[nH]c(=O)c23)cc1,8.72%
14,CCN(CC(=O)Nc1ccccc1OC)C(=O)CCc1ccccc1,-7.86%
15,O=C(NCc1ccccc1)c1cncc(Br)c1,-6.81%
16,COc1ccc(/C=C2/SC(=O)NC2=O)cc1,11.1%
17,COc1cc([N+](=O)[O-])cc2cc(C(=O)N3CCN=C3c3ccccc3)c(=O)oc12,-0.402%
18,COC(=O)/C=c1\[nH]c2nnc(C)n2c1=O,5.25%
19,Cc1cccc(NC(=S)NNC(=O)c2ccc(Br)o2)c1,19.3%
20,CC(C)(C)SCCNC(=O)CN1C(=O)c2cccc3cccc1c23,15.8%
21,Cc1nonc1OCCNCc1c(C(=O)N(C)C)nc2ccc(Cl)cn12,6.49%
22,Cc1ccc(NC(=S)N2CCSC2c2cccs2)cc1 (centres unmarked),10.2%
23,Cc1cccc(C)c1NC(=O)/C(=C/c1ccco1)c1ccccc1,-8.26%

row,SMILES,"hERG current change (%, negative = inhibition) at 10uM"
1,Cc1cccc2cc(CN(Cc3ccc(F)cc3)Cc3nnnn3C3CCCC3)c(=O)[nH]c12,-3.2%
2,CN1CCN(C(=O)CSc2nnc(COc3ccc(Cl)cc3)o2)CC1,-8.74%
3,CCc1cc2c(=O)c(-c3cscn3)coc2c(CN(C)C)c1O,8.84%
4,O=C(CSc1nccn1Cc1ccco1)Nc1ccccc1C(F)(F)F,2.5%
5,COc1ccc(/C=C2\CCC(C3CCCC3)C2=O)cc1 (centres unmarked),14.9%
6,CCC(=O)c1ccc(OC(=O)N2CCOCC2)cc1,3.44%
7,COc1cc2c(cc1OC)/C(=C/c1ccc(Cl)cc1)C(=O)OC2,-36.4%
8,COc1cc(C(=O)Nc2ccc(C(N)=O)cc2)c([N+](=O)[O-])cc1OC,24.2%
9,O=C(CC(NC(=O)c1ccccc1Cl)c1ccccc1)NC1=NCCS1 (centres unmarked),3.69%
10,CNc1n[nH]c(=S)s1,7.02%
11,CN1CCN(c2ccc(C(=O)c3ccccc3)cc2[N+](=O)[O-])CC1,-53.1%
12,Cn1c(=O)c(=O)n(C)c2cc(S(=O)(=O)N3CCCC3C(=O)Nc3ccccc3F)ccc21 (centres unmarked),-34.1%
13,Cc1ccc(S(=O)(=O)NC(C)C(c2cccs2)N2CCN(C)CC2)cc1 (centres unmarked),-18%
14,O=C(CCc1ccccc1)NNC(=O)c1ccc(Cl)cc1,11.9%
15,O=C(N/N=C\c1ccc(-c2ccccc2[N+](=O)[O-])o1)C1COc2ccccc2O1 (centres unmarked),-11.6%
16,O=C(CNC(=O)c1ccco1)OCC(=O)c1ccc(Br)cc1,-1.87%
17,Br.CCc1nnc2n1N=C(c1cccc([N+](=O)[O-])c1)CS2,-32.1%
18,CC(=O)N1c2c(cc(Br)cc2S(=O)(=O)NCc2cccnc2)CC1C (centres unmarked),5.7%
19,Cc1ccc(-c2cc(-c3ccc(C)o3)nc(N)c2C#N)cc1,-0.412%
20,Cc1ccc2c(c1)nnn2C1CCN(CC(=O)Nc2ccc3c(c2)OCCO3)CC1,-55.5%
